Here are results for 81 compounds from ChEMBL document CHEMBL1201862, “PubChem BioAssay data set” (2004).

The structures appear in SMILES notation.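 96-well plates; 48 h exposure; 5 concentrations. Endpoints by linear interpolation between flanking doses. Not reached: highest tested concentration assigned. GI50 = concentration required for 50% inhibition of growth.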 Active and inactive are the calls of the source. No stated cut-off is given here; in the data, active = GI50 up to about 1.1 µM and inactive = higher.

This assay has as its system NCI-H322M. Kind of assay: NCI tumour cell line growth inhibition, 48 h.
Consider `CCC1c2[nH]c3ccccc3c2C[C@H]2C(=O)NC(Cc3c[nH]c4ccccc34)C(=O)N12` (stereo partly specified), for which the GI50 was inactive: 33.6 µM.
For `O=C(O)C(Sc1ccc(Cl)cc1)Sc1ccc(Cl)cc1` the value was inactive: 39.5 µM.
For `c1cncc(CSc2ncnc3[nH]cnc23)c1` the value was inactive: > 100 µM; for `O=C1CC(c2cccc(F)c2)Nc2cc3c(cc21)OCO3` (stereo unspecified), active: 0.0483 µM.
Under `CCOc1ccc(OP2(=O)NC(=O)C=C(C)N2)cc1` (stereo unspecified) stands inactive: > 100 µM; under `Nc1ccccc1C(=O)NC(=O)Nc1ccc(Oc2ncc(Br)cn2)c(Cl)c1`, active: < 0.011 µM; under `Cc1ccc(/N=N/NCCCCN/N=N/c2ccc(C)cc2)cc1`, inactive: > 100 µM.
For `CCCCc1ccc(Nc2nc3c(ncn3COCCBr)c(=O)[nH]2)cc1`, the GI50 was inactive: > 100 µM.
For `COc1ccc(C(C)NNC(=O)c2ccncc2)cc1OC` (stereo unspecified) the value was inactive: > 100 µM; for `CCOC(=O)C1CCn2c(nc3c2c(=O)n(C)c(=O)n3C)S1` (stereo unspecified), inactive: > 100 µM.
For `Cc1c(F)c(N)c2c(=O)cc(-c3ccc(NC(=O)[C@@H](N)CCCCN)c(F)c3)oc2c1F` the value was inactive: 8 µM; for `COc1ccc(N2C(=O)[C@H]3CC(C)c4c([nH]c5ccccc45)[C@H]3C2=O)cc1` (stereo partly specified), inactive: 4.91 µM; for `COC(=O)C1=C(C(=O)OC)SC(=C2SCSC3=C2SC(C(=O)OC)=C(C(=O)OC)C32SC3=C(CCCC3)S2)S1`, inactive: > 100 µM.
For the compound `O=C1c2cc3c(cc2CC12Cc1ccccc1C2)CCC3`, the GI50 is inactive: 18.2 µM.
For `COc1ccc2c([nH]c3cc(O)c(C)cc32)c1C=O` the value was inactive: > 25 µM; for `C[n+]1cc2cc(O)c(O)cc2c2ccc3cc(O)c(O)cc3c21.c1ccncc1`, inactive: 2.57 µM; for `O=[N+]([O-])/C=C/c1cn(CCCCCn2cc(/C=C/[N+](=O)[O-])c3ccccc32)c2ccccc12`, inactive: 31.6 µM.
With `Cc1ccccc1/C=C/C(=O)c1ccccc1`, the GI50 was inactive: 18.7 µM.
For `CC(=O)OCCCCn1nncc1Cn1ccc(=O)n(Cc2cnnn2CCCCOC(C)=O)c1=O` the value was inactive: > 100 µM; for `O=c1c2cc3c(=O)n4c(cc(-c5ccccc5)c5cc(Cl)ccc54)nc3cc2nc2cc(-c3ccccc3)c3cc(Cl)ccc3n12`, inactive: > 100 µM.
For `COC(=O)c1ccc(NCC2=CC(=O)C=CC2=O)cc1O` the value was inactive: 20.5 µM; for `CC(C)(C)O/N=C/c1cc(NC(=S)c2ccsc2)ccc1Cl`, inactive: 21 µM; for `CC(C)OP(=O)(OC(C)C)/C(=N/Nc1ccccc1[N+](=O)[O-])NCCN/C(=N\Nc1ccccc1[N+](=O)[O-])P(=O)(OC(C)C)OC(C)C`, inactive: > 100 µM.
Under `CN(C)CCCOCCn1c2c(c3ccccc31)CCCC2` stands inactive: 32.9 µM.
Regarding `CC1CCC(C(C)C2C(O)CC3C4CC=C5CC(O)CCC5(C)C4CCC32C)NC1` (stereo unspecified), the GI50 is inactive: 29.2 µM.
Under `CCO/C=N/C1=C(C#N)SC2=N/C(=C\c3ccccc3)C(=O)N21` stands inactive: > 100 µM; under `CN(Cc1cnc2nc(N)nc(N)c2n1)c1ccc(C(=O)NC2CCCCC2)cc1`, inactive: 32.7 µM.
Under `CC(C)(C)c1cc(COc2c3sc(=S)sc3c(OCc3cc(C(C)(C)C)cc(C(C)(C)C)c3)c3sc(=S)sc23)cc(C(C)(C)C)c1` stands inactive: > 100 µM; under `O=C(/C(=C\I)c1ccccc1)c1ccccc1`, inactive: 6.9 µM.
For `COc1cc(C)c(/C=C2/N=C(c3ccccc3)OC2=O)c([N+](=O)[O-])c1OC` the value was inactive: > 100 µM.
For the compound `COc1cc(CC2C(=O)OCC2[C@@H](OC(C)=O)c2ccc3c(c2)OCO3)c(Br)c(OC)c1OC` (stereo partly specified), the GI50 was inactive: > 100 µM.
For `CCOC(=O)CCCNC(=O)CCCCC(=O)N(C)C` the value was inactive: > 100 µM.
With `O=C(OCC1CCCN2CCCCC12)c1cccnc1` (stereo unspecified), the GI50 was inactive: > 100 µM.
For `CNNC1=NS(=O)(=O)c2cc(C#N)c(Cl)cc2S1` the value was inactive: > 10 µM; for `O=c1[nH]c(=O)n(C2CC(O)C(CO)O2)c2nc3ccc4ccccc4c3nc12` (stereo unspecified), inactive: 46.9 µM.
For `Nc1ccc2ncc(NCc3ccc(F)cc3)nc2c1`, the GI50 is inactive: 63.1 µM.
As for `CCCc1cc(=O)oc2c3c(c4c(c12)OC(C)(C)CC4)O[C@H](C)[C@@H](C)[C@H]3O`, the GI50 was inactive: 15.8 µM.
Take `CC(=O)CC(=O)CCCC(=O)Nc1ccc(Cl)cc1Cl`: the GI50 was inactive: > 100 µM.
For `O=C1CCC(=O)c2sccc2N1` the value was inactive: > 100 µM.
Consider `O=C(N/C(=C\c1cccc([N+](=O)[O-])c1)c1nc2cc([N+](=O)[O-])ccc2[nH]1)c1ccccc1`, for which the GI50 was inactive: 34.2 µM.
Turning to `O=C(CC(C(=O)c1ccsc1)c1cccs1)c1cccs1` (stereo unspecified), the GI50 was inactive: 94.6 µM.
As for `COC(=O)[C@H](Cc1ccccc1)NC(=O)c1ccc(CNC(=O)/C=C/c2ccc(-c3ccccc3)cc2)cc1`, the GI50 is inactive: > 100 µM.
Under `C=C(C(=C)N1N=NC2C3CCC(C3)C21)N1N=NC2C3CCC(C3)C21` (stereo unspecified) stands inactive: > 100 µM; under `CC(C)(C)c1cc(OCc2nn3c(Cc4ccccc4)nnc3s2)c(Cl)cc1OCc1nn2c(Cc3ccccc3)nnc2s1`, inactive: > 100 µM.
Take `Cc1ccc2c(c1)C(=O)C1(C2)Cc2cccc(C)c2C1=O` (stereo unspecified): the GI50 was inactive: > 100 µM.
For `O=C1CC2c3ccccc3CCC2c2ccccc21` (stereo unspecified) the value was inactive: 46.2 µM.
Take `CCOP(=O)(C[S+](C)[O-])O[C@@H]1C[C@H](C)CC[C@H]1C(C)C` (stereo partly specified): the GI50 is inactive: 7.43 µM.
Regarding `C=CCOC(C)n1c(C)cc(=O)n(C(C)OCC=C)c1=O` (stereo unspecified), the GI50 is inactive: > 100 µM.
On to `CNC1C(OC2C(OC3C(O)C(O)C(O)C(O)C3O)OC(C)C2(O)CO)OC(CO)C(O)C1O.N=C(N)N.NC(=O)O` (stereo unspecified), for which the GI50 is inactive: > 100 µM.
Turning to `COc1cc(C(=O)C/C(CCC(=O)Nc2ccc(Cl)cc2C)=N/NC(=O)C(N)=O)ccc1O`, the GI50 is inactive: > 100 µM.
For `O=C1CC2CC(CC3(CO3)C2)C1F` (stereo unspecified) the value was inactive: > 100 µM.
Under `CN(C)c1ccc(/C=C2\N=C(c3ccccc3)N(/N=C3\C(=O)Nc4ccccc43)C2=O)cc1` stands inactive: > 100 µM; under `O=C(Nn1c(-c2ccccc2)nc2ccccc2c1=O)c1ccccc1O`, inactive: 71.4 µM; under `COc1ccc(C=C2C(=O)NC(=S)NC2=O)c2ccccc12`, inactive: 44.2 µM.
Take `Cc1ccc2[nH]/c(=N/S(=O)(=O)c3cc(C)c(Cl)cc3S)[nH]c2c1`: the GI50 was inactive: 50.9 µM.
In the case of `O=C1C(Cl)C2(CC(/C=C/c3ccccc3O)=NN2c2cccc(S(=O)(=O)O)c2)N1c1nc2ccccc2s1` (stereo unspecified), the GI50 was inactive: 29 µM.
`CCOC1(COP(=O)(OCc2ccccc2)OCc2ccccc2)COC(COP(=O)(OCc2ccccc2)OCc2ccccc2)(OCC)CO1` (stereo unspecified): the GI50 was inactive: > 100 µM.
On to `Nc1ncnc2c1sc(=S)n2-c1ccccc1`, for which the GI50 was inactive: > 100 µM.
As for `CO/C=C(/C(=O)OC)c1ccccc1[C@H]1C[C@@H]1c1ccccc1`, the GI50 is inactive: 35.6 µM.
Regarding `CCOC(=O)C1(O)C(=O)C2=C3C(=O)OC(C4OC(=O)c5c(c(O)c(O)c(O)c5C31)-c1c(cc(O)c(O)c1O)C(=O)OC1COC(=O)c3cc(O)c(O)c(O)c3-c3c(cc(O)c(O)c3O)C(=O)OC14)[C@@H]2O` (stereo partly specified), the GI50 is inactive: 14.9 µM.
For `NC(=S)NNC(=O)CCC(=O)Nc1ccc(Cl)cc1Cl` the value was inactive: > 100 µM; for `COc1ccccc1CC1(O)OC(=O)c2ccccc21` (stereo unspecified), inactive: > 100 µM.
For `CCCN1CCC(=O)N(CCC(F)(F)C(F)(F)C(F)(F)C(F)(F)C(F)(F)C(F)(F)F)C1=S` the value was inactive: > 100 µM; for `O=C1NC2ON=C(c3ccccc3)C2C2ON=C(c3ccccc3)N12` (stereo unspecified), inactive: > 100 µM.
Regarding `O=C1C[C@H]2CCCN2[C@@H](c2ccccc2)C1`, the GI50 was inactive: > 100 µM.
For the compound `CCOc1cc(C2CC(c3ccc(NS(=O)(=O)c4cc([N+](=O)[O-])ccc4C)cc3)=NN2)ccc1O` (stereo unspecified), the GI50 is inactive: 25.1 µM.
Turning to `C=CCN1C(=O)N/C(=C\c2ccc(Cl)cc2)C1=O`, the GI50 is inactive: > 100 µM.
Under `Cn1c(=O)n2n(c1=O)C(S(=O)(=O)c1ccccc1)C2` (stereo unspecified) stands inactive: > 100 µM.
For `COc1cccc(C2c3cc4c(cc3OC(N3CCCCC3)C2C)OCO4)c1OC` (stereo unspecified), the GI50 is inactive: 17.3 µM.
For `Cc1ccccc1C(C#N)/C(=N/NC(=O)c1cc2ccccc2cc1O)C(=O)Nc1cccc(Cl)c1` (stereo unspecified) the value was inactive: 20 µM.
For `Cc1cccc2c1[C@]13OC(C)[C@]4(C)CC5OC(=O)[C@@]1(C)[C@@H]5[C@]34C(=O)O2` (stereo partly specified) the value was inactive: > 100 µM; for `CC(C)N1C(C)[C@@H](c2ccccc2)O[P@@]1(=O)CC1=CCCCC1` (stereo partly specified), inactive: > 99.5 µM; for `CC(C(=O)N1C(=O)N(C(=O)[C@H](C)C(O)c2ccccc2)[C@H](c2ccccc2)[C@H]1c1ccccc1)[C@@H](O)c1ccccc1` (stereo partly specified), inactive: 42.3 µM.
Take `CC1(C)C(O)C[C@]23CCC[C@](C)(C[C@@H](O)C12)C3` (stereo partly specified): the GI50 is inactive: > 100 µM.
As to `CC1OC(c2ccc3c(OCc4ccccc4)cccc3c2O)CC(OCc2ccccc2)[C@H]1OCc1ccccc1` (stereo partly specified), the GI50 is inactive: > 10 µM.
For the compound `COc1cc(/C=C\c2ccc(C)cc2)cc(OC)c1OC`, the GI50 was active: 0.0108 µM.
`COc1cc2c(c(OC)c1OC)-c1ccc(SC)c(=O)cc1[C@@H](NC(=O)c1ccc(OC(C)=O)cc1)CC2`: the GI50 is active: 0.0389 µM.
As for `O=c1c2cc([N+](=O)[O-])ccc2n2n1CCCCC2`, the GI50 was inactive: > 100 µM.
For `COc1cc2c(cn1)[nH]c1ccccc12` the value was inactive: > 100 µM; for `Sc1nn2c(Cc3ccccc3)nnc2s1`, inactive: > 100 µM; for `Cn1cnc2c(OCC3CCCCC3)nc(N)nc21`, inactive: > 100 µM.
